Measured values: the supplement of paper PMC11383711
This is one part of the list. Binding of human antibodies (heavy:light variable regions, tested as scFv in one mRNA-display pool) to influenza hemagglutinin, with or without the stem antibody CR9114 bound first. Score = (mean enrichment − median) / interquartile range of that screen; higher = more enriched, 0 = typical non-binder. Active = above the paper's cut-off per screen: stems 28; unblocked H1 Solomon Islands 5, H1 Michigan 3, H3 5, H5 19, H7 2.85, both B 5; blocked 9, 7, H5 10, H7 10, B Phuket 10, B Lee 11.5. Scores are scaled within each screen and are no affinities; replicates correlate at about 0.6 to 0.9, and antibodies rare in the pool are noisier.

Tests used:
Experiment in all cases: mRNA display binding score; higher = more enriched on the antigen
[1] = target: Influenza A H1N1 A/Michigan/45/2015 hemagglutinin ectodomain
Protocol: (§1)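 A pool of natively paired antibodies, displayed as scFv on mRNA, was selected once on antigen-coated beads and sequenced before and after; two replicates.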

[2] = target: Influenza A H1N1 A/Solomon Islands/3/2006 hemagglutinin ectodomain
Protocol: as §1

[3] = target: Influenza A H3N2 A/Singapore/INFIMH-16-0019/2016 hemagglutinin ectodomain; conditions: antigen blocked with: nothing
Protocol: as §1

[4] = target: Influenza A H5N1 A/Qinghai/1A/2005 hemagglutinin ectodomain
Protocol: as §1

[5] = target: Influenza A H7N9 A/Shanghai/2/2013 hemagglutinin ectodomain
Protocol: as §1

[6] = target: Influenza B/Lee/1940 hemagglutinin ectodomain
Protocol: as §1

[7] = target: Influenza B/Phuket/3073/2013 hemagglutinin ectodomain
Protocol: as §1

[8] = antigen blocked with: 2 µM CR9114 IgG

Measured: mRNA display binding score

B1: R95-2E11 (protein)
chain 1: EVQLVESGGGLVQPGRSLRLSCAASGFTFDDYAMHWVRQAPGKGLEWVSGISWNSGHLGYADSVKGRFTISRDNVKNSLYLEMNSLGPEDTALYYCAKDIVGDYGSGSYYDYWGQGTLVTVSS
chain 2: SYELTQPPSVSVAPGQTARITCGGNNIGSKSVHWYQQKPGQAPVLVVYDDSDRPSGIPERFSGSNSGNTATLTISRVEAGDEADYYCQVWDGSSDHRYVFGTGTKVTVL
inactive: [1]; [8] -0.281 | [1]; antigen blocked with: nothing -0.732 | [2]; [8] -0.59 | [2]; antigen blocked with: nothing -0.55 | [3] -0.518 | [4]; [8] -0.791 | [4]; antigen blocked with: nothing -0.519 | [5]; [8] -0.651 | [5]; antigen blocked with: nothing -0.818 | [6]; [8] -0.394 | [6]; antigen blocked with: nothing -0.413 | [7]; [8] -0.565 | [7]; antigen blocked with: nothing -0.468

B2: antibody 1D02 (protein)
chain 1: EVQLVESGGGLEQPGRSLRLSCEASGFTFDEYAMHWVRQAPGKGLEWVSGISWSSGVIGYADSVRGRFTISRDNAKNSLYLQMNSLTGEDTALYYCAKDSVAETAIRGYYFDYWGQGTLVTVSS
chain 2: DIQMTQSPSTLSASVGDRVTITCRASQYISRWLAWYQQKPGKAPNLLIYDASSLETGVPSRFSGSGSGTEFTLTINSLQPDDFATYYCQQYHSLSALTFGGGTKVEIK
active: [6]; [8] 92.9 | [6]; antigen blocked with: nothing 258
inactive: [1]; [8] 0.955 | [1]; antigen blocked with: nothing 0.454 | [2]; [8] 1.87 | [2]; antigen blocked with: nothing -0.311 | [3] 0.783 | [4]; [8] -0.27 | [4]; antigen blocked with: nothing 1.24 | [5]; [8] 1.33 | [5]; antigen blocked with: nothing -0.0606 | [7]; [8] 1.19 | [7]; antigen blocked with: nothing 0.294

B3: 051-09-5B06 (protein)
chain 1: EVQLVESGGGLVKPGGSLRLSCAASGFPISIGWTTWVRQAPGKGLEWVGLMKSDNGGGATLYAAPMKGRFSISRDDSKNTVYLQMDRLETEDTGIYYCSSTADRDYYDTAGFLDFWGPGTLVTVSS
chain 2: DIVMTQSPLSLTVTPGESASISCRSSQNVQHSNGYNYLHWYLQKPGQSPRLLIYLGSNRASGVPDRFSGSGSGTDFTLKISRVEADDVGVYYCMQALQTRTFGGGTKVEIK
active: [2]; [8] 102 | [2]; antigen blocked with: nothing 178
inactive: [1]; [8] 1.34 | [1]; antigen blocked with: nothing 0.00336 | [3] 0.452 | [4]; [8] 0.0679 | [4]; antigen blocked with: nothing 1.16 | [5]; [8] -0.545 | [5]; antigen blocked with: nothing -0.596 | [6]; [8] -0.649 | [6]; antigen blocked with: nothing 0.288 | [7]; [8] 0.358 | [7]; antigen blocked with: nothing 0.768

B4: R95-2C07 (protein)
chain 1: EVQLVESGGGLVQPGGSLRLSCEVSGFSFSSYWMSWVRQAPGKGLEWVANIKQDGSEKNYVDSVKGRLTISRDNAKNSLYLQMDSLRAEDTAVYYCARDGPHDFWSGYPFDYWGQGTLVTVSS
chain 2: DIQMTQSPSSLSASVGDRVTITCRASQGIRDDLGWYQQKPGKAPKRLIYAASSLQSGVPSRFSGSGSGTEFTLTISSLQPEDFATYYCLQHNSYPRTFGQGTKVEIK
inactive: [1]; [8] -0.501 | [1]; antigen blocked with: nothing -0.361 | [2]; [8] 0.00117 | [2]; antigen blocked with: nothing -0.232 | [3] -0.128 | [4]; [8] -0.411 | [4]; antigen blocked with: nothing -0.346 | [5]; [8] 0.239 | [5]; antigen blocked with: nothing -0.578 | [6]; [8] 1.01 | [6]; antigen blocked with: nothing -0.307 | [7]; [8] 0.173 | [7]; antigen blocked with: nothing -0.345

B5: R95-2B02 (protein)
chain 1: QVQLVQSGAEVKKPGASVKVSCKASGYTFTGYYLHWVRQAPGQGLEWMGWINPDSGGTSFAQKFQGWATMTSDTSISTAYMELSGLKSDDTAVYYCARIQRAGSGFDLWGQGTMVTVSS
chain 2: QSALTQPASVSGSPGQSITISCSGTSSDVGSYNLVSWYQQHPGKTPKLMIYDVSKRPSGVSNRFSGSKSGSTASLTVSGLQAEDEADYYCYSYAGSRAWVFGGGTKLTV
inactive: [1]; [8] -0.461 | [1]; antigen blocked with: nothing -0.393 | [2]; [8] -0.341 | [2]; antigen blocked with: nothing -0.534 | [3] -0.524 | [4]; [8] -0.711 | [4]; antigen blocked with: nothing -0.58 | [5]; [8] 0.0642 | [5]; antigen blocked with: nothing -0.691 | [6]; [8] -0.261 | [6]; antigen blocked with: nothing 0.215 | [7]; [8] -0.498 | [7]; antigen blocked with: nothing -0.341

B6: W85-1F04 (protein)
chain 1: QVQLVQSGAEVKKPGASVKVSCKASGYTFTTYDINWVRQATGQGLEWMGWMNPNSGNTGSAQNFQGRVTMTRNTSINTAYMELSSLRSDDTAVYYCVRGLGYCTSTSCYGSWFDPWGQGTLVTVSS
chain 2: EIVMTQSPATLSVSPGERATLSCRASQNISSNLAWYQQKAGQVPRLLIYGASTRATGCPARFSGSGSGTEFTLTISSLQSEDFAVYYCQQYDNWTPITFGQGTRLEIK
inactive: [1]; [8] 0.77 | [1]; antigen blocked with: nothing 1.01 | [2]; [8] 0.296 | [2]; antigen blocked with: nothing 0.39 | [3] 0.178 | [4]; [8] 0.938 | [4]; antigen blocked with: nothing 0.326 | [5]; [8] 0.322 | [5]; antigen blocked with: nothing 1.27 | [6]; [8] 0.158 | [6]; antigen blocked with: nothing 0.35 | [7]; [8] 0.472 | [7]; antigen blocked with: nothing 0.102

B7: 009-10-2G06 (protein)
chain 1: EVQLVESGGGFVRPGGSLRLSCVGSGFNFDDSAMHWVRQGPGKGLEWVAGINWKSNDIAYVESVKGRFTISRDNAKRTLFLQMNSLRPDDTALYFCAKDRAGYFYAMAVWGQGATVTVSS
chain 2: SYELTQPPSMSVAPGQTAKITCGGDHIGIRSVHWYLRRPGRAPVLVLYDLNDRPLGIPERFSGSNSGHTATLTISGVEAGDEGDYYCQVWDGSGDNRGIFGGGTKLTVL
inactive: [1]; [8] -0.263 | [1]; antigen blocked with: nothing -0.351 | [2]; [8] -0.466 | [2]; antigen blocked with: nothing -0.273 | [3] -0.198 | [4]; [8] -0.554 | [4]; antigen blocked with: nothing -0.395 | [5]; [8] -0.0286 | [5]; antigen blocked with: nothing -0.264 | [6]; [8] -0.0229 | [6]; antigen blocked with: nothing -0.063 | [7]; [8] -0.315 | [7]; antigen blocked with: nothing -0.258

B8: K77-1E06 (protein)
chain 1: EVQVVESGGRLVRPGGSLRLSCAASGFILSNFWMTWVRQAPGKGLEFVANIKQDGSLKYYVDSVKGRFTISRDNAMNSVYLQMNSVRAEDSAVYYCARDWFGRELGAMDIWGQGTTVTVSS
chain 2: DIVMTQSPDSLAVSLGERATINCKSSQTLLSRSNNKNYLAWYQHRPGQPPKLLIYWASTRASGVPDRFSGSGSGTDFTLTITSLQAEDVAVYFCQQYYGSPLTFGGGTRVQIK
inactive: [1]; [8] 0.0927 | [1]; antigen blocked with: nothing -0.293 | [2]; [8] -0.536 | [2]; antigen blocked with: nothing -0.113 | [3] 2.22 | [4]; [8] -0.568 | [4]; antigen blocked with: nothing -0.179 | [5]; [8] 0.605 | [5]; antigen blocked with: nothing -0.317 | [6]; [8] -0.315 | [6]; antigen blocked with: nothing -0.153 | [7]; [8] 0.49 | [7]; antigen blocked with: nothing -0.0837

B9: 01.y.01 (protein)
chain 1: EVQLVESGGGLVQPGGSLRLSCAASGFTFSSYWMTWVRQAPGKGLEWVANIKQDGSSKYYVDSLKGRFTISRDNAKNSLYLQMNSLRDEDTAVYYCARDRTPGYSYGYVDRVVWRNPYYGMDVWGQGTTVAVSS
chain 2: DIQMTQRPVSLSASVGDTVTITCRASHSIATYLNWYQQKPGKAPNLLISTASDLQSGVPSRFSGSGSGTDFTLTIDSLQPEDFATYYCQQSYSIPLTFGGGTRVEIK
inactive: [1]; [8] -0.15 | [1]; antigen blocked with: nothing -0.585 | [2]; [8] -0.85 | [2]; antigen blocked with: nothing 0.291 | [3] 0.962 | [4]; [8] -0.435 | [4]; antigen blocked with: nothing -0.271 | [5]; [8] -0.429 | [5]; antigen blocked with: nothing -0.332 | [6]; [8] 0.113 | [6]; antigen blocked with: nothing -0.185 | [7]; [8] -0.391 | [7]; antigen blocked with: nothing -0.214

B10: 16.ND.95 (protein)
chain 1: EVQLVESGGGMVQPGRSLRLSCAASGFTFGNYAMHWVRQAPGKGPEWVAVISYDGSQKYYTESVKGRFTISRDSSRNMVFLQMNSLRPDDTALYYCVRDRAASLDYWGQGTLVTVPS
chain 2: DIQMTQSPVSPSGSVGDRVTITRRASQSIARVVNWYQQKPGRAPKLLIFYASSLESGGPSRFSGRGFGTDFTITISGLQPEDFATYYCQQRYSAPYTFGQGTNLEIK
inactive: [1]; [8] -0.113 | [1]; antigen blocked with: nothing 0.702 | [2]; [8] 0.139 | [2]; antigen blocked with: nothing -0.089 | [3] 3.03 | [4]; [8] 0.486 | [4]; antigen blocked with: nothing 0.858 | [5]; [8] 0.752 | [5]; antigen blocked with: nothing 0.786 | [6]; [8] -0.0727 | [6]; antigen blocked with: nothing 0.141 | [7]; [8] 0.123 | [7]; antigen blocked with: nothing 0.391

B11: antibody 1A03 (protein)
chain 1: VQLLESGGGLVNPGRSLRLSCTASGFTFGDYAVSWFRQAPGKGLEWVGFIGSKKYGDTIEYAASVRGRFTISRDDFQSTAYLQMNSLRTEDTGVYFCSRDRQLAEHSMDVWGQGTTVTVSS
chain 2: DIQMTQSPSSLSASVGDRVTIPCRANQSISTHINWYQQKPGKAPKLVIYGASNLETGVPSRFSGGGSGTDFTLTISSLQPEDIATFYCQQYDTFPITFGQGTRLEIK
inactive: [1]; [8] -0.575 | [1]; antigen blocked with: nothing -0.231 | [2]; [8] -0.644 | [2]; antigen blocked with: nothing -0.261 | [3] -0.551 | [4]; [8] -0.714 | [4]; antigen blocked with: nothing -0.47 | [5]; [8] -0.712 | [5]; antigen blocked with: nothing -0.65 | [6]; [8] -0.181 | [6]; antigen blocked with: nothing -0.365 | [7]; [8] -0.576 | [7]; antigen blocked with: nothing -0.399

B12: 240-14-IgG-1A06 (protein)
chain 1: QVTLKESGPVLVKPTETLTLTCTVSGFSLSNIIMGVSWIRQPPGRALEWLAHITSKDEKSYSTSLKKRLTISKDTSKSQVVLIMANMDPADTATYYCTRIRWDCGGDCYWTHDFWGQGTLVTVSS
chain 2: SYELTQPPSVSVSPGQTARITCSGGRLGDTFASWYQQRPGQAPVLVIYRDTMRPSGIPERFSGSNSGHAATLTISGTQTMDEADYYCQVWDTSASAHVFGTGTTVTVL
inactive: [1]; [8] 0.319 | [1]; antigen blocked with: nothing -0.259 | [2]; [8] -0.218 | [2]; antigen blocked with: nothing -0.565 | [3] -0.431 | [4]; [8] -0.861 | [4]; antigen blocked with: nothing -0.343 | [5]; [8] -0.0567 | [5]; antigen blocked with: nothing -0.538 | [6]; [8] -0.252 | [6]; antigen blocked with: nothing -0.154 | [7]; [8] -0.468 | [7]; antigen blocked with: nothing -0.173
